Experimental data reported in publication PMC4336329 (PLoS ONE, 2015).
Screen size: about 310,000 compounds; about 14,000 (4.5%) showed an effect of 50% or more. The effect is printed as a negative number. This is one part of the list.

target: human ether-à-go-go-related gene (hERG) potassium channel (human, UniProt Q12809); assay: primary screen, population patch clamp on CHO cells stably expressing hERG
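Also: peak tail current of the secondary pulse compared with the same well before compound.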

Sequence of human ether-à-go-go-related gene (hERG) potassium channel (Q12809 whole entry, looked up): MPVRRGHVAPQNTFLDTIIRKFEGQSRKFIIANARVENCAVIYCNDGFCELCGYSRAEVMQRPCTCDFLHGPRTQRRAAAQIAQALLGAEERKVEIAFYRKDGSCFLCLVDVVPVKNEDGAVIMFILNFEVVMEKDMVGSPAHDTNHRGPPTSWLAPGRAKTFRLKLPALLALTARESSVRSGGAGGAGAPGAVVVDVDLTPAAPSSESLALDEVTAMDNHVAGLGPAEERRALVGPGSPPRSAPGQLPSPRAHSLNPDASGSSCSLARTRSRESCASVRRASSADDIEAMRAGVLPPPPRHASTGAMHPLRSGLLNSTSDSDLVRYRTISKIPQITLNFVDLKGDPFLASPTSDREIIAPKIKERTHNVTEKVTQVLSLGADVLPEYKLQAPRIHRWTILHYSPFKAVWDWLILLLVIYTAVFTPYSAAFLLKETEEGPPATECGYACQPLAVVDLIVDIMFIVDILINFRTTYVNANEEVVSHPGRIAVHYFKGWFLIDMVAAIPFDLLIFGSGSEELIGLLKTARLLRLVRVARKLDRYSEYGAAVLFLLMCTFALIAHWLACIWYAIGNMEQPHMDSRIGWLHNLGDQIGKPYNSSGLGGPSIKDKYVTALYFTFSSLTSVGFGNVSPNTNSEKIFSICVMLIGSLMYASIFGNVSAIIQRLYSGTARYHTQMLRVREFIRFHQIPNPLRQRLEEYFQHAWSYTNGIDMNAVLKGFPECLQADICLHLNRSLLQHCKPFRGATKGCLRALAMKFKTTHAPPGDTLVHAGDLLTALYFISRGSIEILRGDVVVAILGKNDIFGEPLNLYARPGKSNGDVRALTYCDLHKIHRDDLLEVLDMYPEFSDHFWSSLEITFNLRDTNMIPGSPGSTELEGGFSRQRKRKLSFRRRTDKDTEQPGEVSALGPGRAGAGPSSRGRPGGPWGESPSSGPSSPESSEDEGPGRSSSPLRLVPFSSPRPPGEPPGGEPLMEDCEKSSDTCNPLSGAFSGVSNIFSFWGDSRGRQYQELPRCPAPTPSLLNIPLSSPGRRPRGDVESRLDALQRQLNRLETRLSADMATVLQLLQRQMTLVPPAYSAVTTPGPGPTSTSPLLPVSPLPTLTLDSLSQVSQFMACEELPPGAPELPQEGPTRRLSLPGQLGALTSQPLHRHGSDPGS

SMILES	hERG current change (%, negative = inhibition) at 10uM [%]
CC(=O)c1c(C)cc(C)c(CSc2nc(C)cc(=O)[nH]2)c1C	-4.73
COC(=O)c1ccccc1NC(=O)Cc1nc(-c2ccccc2)sc1-c1ccc(C)cc1	-6.29
O=C(Nc1ccc([N+](=O)[O-])cc1Br)c1cccnc1	-17.2
COc1ccc(S(=O)(=O)/N=C2/NC(=O)/C(=C/c3ccco3)S2)cc1	11.5
COc1cc(C(=O)NCc2ccc(C)cc2)ccc1OC(F)F	-18.7
O=C(CNS(=O)(=O)c1ccccc1F)Nc1ccc(N2CCOCC2)cc1	-3.06
CC1(C(=O)Nc2nc3ccccc3s2)CC1(Br)Br (stereo not drawn)	13.5
COc1ccc(C(=O)C2CCCN(C(=O)c3cnsn3)C2)c(C)c1 (stereo not drawn)	4.06
CC(C)Oc1cccc(C(=O)NC(=S)Nc2cccc(C(F)(F)F)c2)c1	11.7
CCc1noc(C)c1C(=O)NCCc1c[nH]c2ccccc12	4.07
O=C(NCc1ccccc1)C(c1ccc(F)cc1)N(C(=O)c1csnn1)C1CCCC1 (stereo not drawn)	-0.388
Cc1cc(Nc2cccc(Cl)c2)nc(N2CCOCC2)n1	-17.4
CC(=O)NC1C(=O)N=C(SCC(=O)Nc2c(C)cccc2C)NC1=O (stereo not drawn)	-15
Nc1cc(-c2ccccc2)nn1S(=O)(=O)c1ccc(Br)cc1	17
Cc1ccc(OC(=O)CCC(=O)Nc2ccc(C(N)=O)cc2)cc1	18.2
COCC(C)NC(=O)NC1(C(F)(F)F)Oc2ccc(Cl)cc2O1 (stereo not drawn)	9.63
O=S(=O)(c1ccc(Cl)cc1)N1CCN(Cc2ccc(O)c3ncccc23)CC1	-18.1
C/C(CC(c1ccccc1)c1c(O)c2ccccc2oc1=O)=N\NC(N)=S (stereo not drawn)	14.9
COc1ccc(NC(=O)C2CCC(CNc3c(N4CCOCC4)c(=O)c3=O)CC2)cc1Cl (stereo not drawn)	39

SMILES	hERG current change (%, negative = inhibition) at 10uM [%]
CCOc1ccc(NC(=O)CSc2nnc(Cn3cnc4ccccc43)n2C)cc1	-18.5
Cc1ccc(CCC(=O)Nc2ccc(N(C)C)cc2)o1	-5.27
O=C(CSc1nc2ccccc2n1-c1ccccc1)NCC1CCCO1 (stereo not drawn)	-22.1
Clc1ccc(CNCc2cccs2)cc1Cl	7.52
CCCCN(C(=O)/C=C/c1ccc(OCC(C)C)c(OCC)c1)c1c(N)n(CCC)c(=O)[nH]c1=O	-5.15
COc1ccc(NC(=S)N2CCN(c3ncccn3)CC2)cc1	-0.0506
O=C(NCCCn1ccnc1)c1nn2c(C(F)(F)F)cc(-c3ccccc3)nc2c1Cl	-29.6
O=C(Cc1c(F)c(F)c(F)c(F)c1F)Nc1nc(-c2ccccc2)cs1	21.1
O=C1NC(=O)C(CCc2ccncc2)(Cc2ccc3c(c2)OCO3)C(=O)N1CCc1ccccc1 (stereo not drawn)	-32.5
CCOC(=O)c1nn(-c2ccccc2C)c2nc(CC(C)C)c(C#N)c(=O)n12	-3.22
CN(C)C(=O)c1ccc(NC(=O)COC(=O)C2=COCCO2)cc1	11.4
COc1ccc(C2/C(=C(\O)c3ccc4c(c3)OCCO4)C(=O)C(=O)N2Cc2cccnc2)cc1 (stereo not drawn)	16.2
CCNC(=S)NNC(=O)c1cc(-c2cccc(OC)c2)nc2ccccc12	-23
CCN1CCCC1CNC(=O)c1cc(NC(C)=O)c(N(C)C)cc1OC (stereo not drawn)	10.6
COCCCNC(=O)C1CCC(CNS(=O)(=O)c2ccc3c(c2)N(C(C)=O)CCO3)CC1 (stereo not drawn)	10.1
O=C(O)COc1cccc2ccccc12	4.81
CCn1c(NC(=O)C(C)C)c(-c2ccccc2)c(=O)c2ccccc21	-0.195
NC(=S)N/N=C/c1coc2cc(Br)ccc2c1=O	13.6
S=C(Nc1ccccc1)Nc1ccc(Cl)cc1Cl	20.9

SMILES	hERG current change (%, negative = inhibition) at 10uM [%]
CC1(C)NC(=O)N(CC(O)COC2CCCCC2)C1=O (stereo not drawn)	8.64
COc1ccc(N2CCC(CNC(=O)Nc3ccc(OC)cc3OC)C2)cc1 (stereo not drawn)	-6.99
CCn1c(=O)c(-c2ccccc2)c(O)c2ccccc21	0.885
Cc1ccc(-c2cc(C(=O)NCc3ccccn3)c3ccccc3n2)cc1	-13.5
COc1ccc(/C=N/NC(=O)CNC(=O)c2ccncc2)cc1	6.02
COc1ccc2sc(-c3ccc(N(C)C)cc3)c(C#CCCO)c2c1	6.83
COc1ccccc1C(=O)OCc1c(F)cccc1Cl	-1.14
Cn1c(=O)c2c(ncn2CC(=O)Nc2ccccc2)n(C)c1=O	13.9
CCC1(c2ccccc2)NC(=O)N(CC#N)C1=O (stereo not drawn)	10.6
Cc1sc2nc(C3CCCCC3)nc(SCC(=O)N3CC(=O)Nc4ccccc43)c2c1C	52.8
Cc1cc(-c2ccc(C(=O)O)s2)cnc1N	9.32
CC1CCN(c2c(NCC3CCC(C(=O)N4CCCCC4)CC3)c(=O)c2=O)CC1 (stereo not drawn)	14.5
CC(=O)NS(=O)(=O)c1ccc(NC(=O)c2cccc(OCc3c(C)noc3C)c2)cc1	2.25
CCn1cc(C(=O)N[C@@H](CCSC)C(=O)NCCCOC)c(=O)c2cc3c(cc21)OCO3	15.4
O=C(CN(C(=O)c1ccc(Cl)cc1)C1CCCCC1)Nc1ccc(Cl)c([N+](=O)[O-])c1	1.58
c1ccc(Cc2nnc(N3CCOCC3)c3ccccc23)cc1	-14.4
CC(C)c1cc(Br)c(NC(=O)Nc2cccnc2)c(Br)c1	-6.29
Cc1nc(C)n(C(C)CNC(=O)c2ccccc2)n1 (stereo not drawn)	4.93
COc1ccc(S(=O)(=O)N(C)C)cc1NC(=O)COC(=O)c1nn(C)c(=O)c2ccccc12	4.64
